# Assay results reported in a collection of fitness landscapes (doi:10.1126/science.1257360).
# The other results are listed elsewhere or left out.
# B1: PhoQ; a variant is named by its letters at X, in order, P23837 (parent)
# chain: MKKLLRLFFPLSLRVRFLLATAAVVLVLSLAYGMVALIGYSVSFDKTTFRLLRGESNLFYTLAKWENNKLHVELPENIDKQSPTMTLIYDENGQLLWAQRDVPWLMKMIQPDWLKSNGFHEIEADVNDTSLLLSGDHSIQQQLQEVREDDDDAEMTHSVAVNVYPATSRMPKLTIVVVDTIPVELKSSYMVWSWFIYVLSANLLLVIPLLWVAAWWSLRPIEALAKEVRELEEHNRELLNPATTRELTSLVRNLNRLLKSERERYDKYRTTLTDLTHSLKTPLXXLQXXLRSLRSEKMSVSDAEPVMLEQISRISQQIGYYLHRASMRGGTLLSRELHPVAPLLDNLTSALNKVYQRKGVNISLDISPEISFVGEQNDFVEVMGNVLDNACKYCLEFVEISARQTDEHLYIVVEDDGPGIPLSKREVIFDRGQRVDTLRPGQGVGLAVAREITEQYEGKIVAGESMLGGARMEVIFGRQHSAPKDE
# Variants of: B1
# Assay: enrichment ratio after two sorts for PhoP signalling (ratio (wild type AVST 3.29)); higher = more functional
# Conditions: with PhoP (E. coli)
row,Variant,enrichment ratio
1,PMRN,≤ 0.25
2,WWGC,≤ 0.25
3,GYAP,≤ 0.25
4,YSPF,≤ 0.25
5,FPAS,≤ 0.25
6,ESDP,≤ 0.25
7,SQPV,≤ 0.25
8,NTLA,≤ 0.25
9,PDYC,≤ 0.25
10,ILQI,≤ 0.25
11,HEDT,≤ 0.25
12,RYYC,≤ 0.25
13,VAEY,≤ 0.25
14,PNQG,≤ 0.25
15,KFAN,≤ 0.25
16,TLQI,14.7
17,PANG,≤ 0.25
18,LRAM,≤ 0.25
19,KQPN,≤ 0.25
20,EPYH,≤ 0.25
21,KIVV,≤ 0.25
22,FMAY,≤ 0.25
23,EEPK,≤ 0.25
24,MFIT,≤ 0.25
25,YPEV,≤ 0.25
26,QRSC,≤ 0.25

row,Variant,enrichment ratio
1,SGKL,≤ 0.25
2,QGHH,6.17
3,FVML,13.2
4,YMSM,≤ 0.25
5,RFPD,≤ 0.25
6,LKDD,≤ 0.25
7,IKHD,≤ 0.25
8,FRSH,≤ 0.25
9,SDWG,≤ 0.25
10,HPII,≤ 0.25
11,KLYW,≤ 0.25
12,NGDG,≤ 0.25
13,KYRS,≤ 0.25
14,IWNC,≤ 0.25
15,PNLQ,1.01
16,YTRQ,≤ 0.25
17,MKHK,≤ 0.25
18,DCHE,≤ 0.25
19,TVDV,≤ 0.25
20,EREM,≤ 0.25
21,GLVK,≤ 0.25
22,IFYW,≤ 0.25
23,YAQA,≤ 0.25
24,RHQW,≤ 0.25
25,RCDC,≤ 0.25
26,PYTR,≤ 0.25

row,Variant,enrichment ratio
1,VPMV,≤ 0.25
2,FLGW,≤ 0.25
3,SGVV,10.1
4,FWED,≤ 0.25
5,RFLF,≤ 0.25
6,ELGP,≤ 0.25
7,GGHD,≤ 0.25
8,QERV,≤ 0.25
9,KYSM,≤ 0.25
10,KLGP,≤ 0.25
11,THPC,≤ 0.25
12,AIHD,≤ 0.25
13,PDSN,≤ 0.25
14,FRDW,≤ 0.25
15,VQTI,≤ 0.25
16,LECR,0.789
17,HQAH,≤ 0.25
18,SAYN,≤ 0.25
19,DCEH,≤ 0.25
20,SYRS,≤ 0.25
21,SCFD,≤ 0.25
22,WYGK,≤ 0.25
23,FTRM,≤ 0.25
24,YCFI,≤ 0.25
25,QFFR,≤ 0.25
26,RSFL,≤ 0.25

row,Variant,enrichment ratio
1,VIQP,≤ 0.25
2,AEVI,17.5
3,RVSV,≤ 0.25
4,LCSD,≤ 0.25
5,HNVW,≤ 0.25
6,FRMN,≤ 0.25
7,EYSK,≤ 0.25
8,IVCT,≤ 0.25
9,TEAQ,28
10,LDHG,≤ 0.25
11,ECTH,≤ 0.25
12,TEQH,3.62
13,SLGQ,≤ 0.25
14,ISNE,≤ 0.25
15,ELYT,≤ 0.25
16,QDSD,≤ 0.25
17,LSMS,0.457
18,YGQE,≤ 0.25
19,HSDY,≤ 0.25
20,GEWS,≤ 0.25
21,YPIM,≤ 0.25
22,AIWN,≤ 0.25
23,FSDG,≤ 0.25
24,YYAM,≤ 0.25
25,ELIV,≤ 0.25
26,DEMS,≤ 0.25

row,Variant,enrichment ratio
1,APVG,≤ 0.25
2,DGSG,≤ 0.25
3,RIIT,≤ 0.25
4,PRQC,≤ 0.25
5,HEHY,≤ 0.25
6,HWVG,≤ 0.25
7,RMQP,≤ 0.25
8,NFCF,≤ 0.25
9,HDGS,≤ 0.25
10,QCYP,≤ 0.25
11,IEEI,≤ 0.25
12,MMFA,≤ 0.25
13,QKVV,≤ 0.25
14,ASYL,3.41
15,TKHV,≤ 0.25
16,WGDF,≤ 0.25
17,GQSW,≤ 0.25
18,AFNR,≤ 0.25
19,QGIM,≤ 0.25
20,DPNK,≤ 0.25
21,FYVQ,≤ 0.25
22,YSFL,1.05
23,APFC,≤ 0.25
24,KRGF,≤ 0.25
25,LNWT,≤ 0.25
26,GPTV,≤ 0.25

row,Variant,enrichment ratio
1,SYWG,≤ 0.25
2,PSGT,≤ 0.25
3,LIMM,≤ 0.25
4,EATP,≤ 0.25
5,DPCL,≤ 0.25
6,HVHP,≤ 0.25
7,NMHT,≤ 0.25
8,GHDL,≤ 0.25
9,APES,≤ 0.25
10,MYWM,≤ 0.25
11,LVKH,≤ 0.25
12,QANY,≤ 0.25
13,NIKK,≤ 0.25
14,RAGP,≤ 0.25
15,WPDG,≤ 0.25
16,QGLD,≤ 0.25
17,RFKF,≤ 0.25
18,KLMG,≤ 0.25
19,ELFP,≤ 0.25
20,MPFM,≤ 0.25
21,DLVT,≤ 0.25
22,MAVG,≤ 0.25
23,NPTC,≤ 0.25
